{"source": "the RNAGym collection of RNA variant scans (doi:10.7554/elife.90254)", "parents": {"B1": {"name": "LINE1-mini (parent)", "chain": "GGCAGAGCUCAACACAGCGUGGCAAAGUGGCUGUGGCUAGACUGCC"}}, "note": "Read counts are not given, so values of variants with three or more changes are uncertain."}
{"variants_of": "B1", "test": "self-cleavage, relative activity (ratio to wild type); higher = more cleavage; in vitro, sequencing; the parent is a self-cleaving ribozyme"}
{"variant": "GGUAGAGCUCAACACAGCGUGGCAAGGUGGCUGUGGGUAGACUACC", "note": "[C3U A26G C37G G44A]", "self-cleavage": 0.02}
{"variant": "GGCAGAGCUCAACACAGCGUGGUUAAGUGGCUGUGUCAAGACUGCC", "note": "[C23U A24U G36U U38A]", "self-cleavage": 0.02}
{"variant": "GGAAGAGCUCUACACAGCGUGGCAAAUUAGAUGUGGCUAGACUGCC", "note": "[C3A A11U G27U G29A C31A]", "self-cleavage": 0.02}
{"variant": "GACAGAGCUCAACAUAGCGUGGCCAAGUGGCUGUGGCUAGACUGCC", "note": "[G2A C15U A24C]", "self-cleavage": 0.54}
{"variant": "GGCAGAGAUCUACACAGCGUGCCUAAGUGGCUGUGGCUAGACUGCC", "note": "[C8A A11U G22C A24U]", "self-cleavage": 0.01}
{"variant": "GGCAUAGCUAAACACAGCGUGUCAAAGUGGCUGUGGCUUGACUGCC", "note": "[G5U C10A G22U A39U]", "self-cleavage": 0.01}
{"variant": "GACAGAGCUCAGCACUGCGUGGCAAAGUGGCUGUGGCUAGACUGUC", "note": "[G2A A12G A16U C45U]", "self-cleavage": 0}
{"variant": "GGCAGAGCUGAACACAGCGUUGCAAAGUGGCUGUGGCUAGACAGCC", "note": "[C10G G21U U43A]", "self-cleavage": 0}
{"variant": "UGCAGAGCUGAACAGAUCGUGGCAAAGUGGCUGUGGCUAGACUGCC", "note": "[G1U C10G C15G G17U]", "self-cleavage": 0.01}
{"variant": "GGUAGAGCUCAACACAACGUGGCGAAGUGACUGUGGAUAGACUGCA", "note": "[C3U G17A A24G G30A C37A C46A]", "self-cleavage": 0.1}
{"variant": "GGCCGAGCUCAACACCGCGUGGCAAAGUGGCUGUCGCUAGACUACA", "note": "[A4C A16C G35C G44A C46A]", "self-cleavage": 0.03}
{"variant": "GGCAUAGCUCAACACAGCGAGGCAAAGUGGCUGUGGCUAGGCUGCC", "note": "[G5U U20A A41G]", "self-cleavage": 0.05}
{"variant": "GGCAGAGCUCAACACAGCGUUGCAAAGAGGCUGUGGCUAAACUGCC", "note": "[G21U U28A G40A]", "self-cleavage": 0.15}
{"variant": "GGCAGAGCUCAACACGGUGUGGCAACGUGCCUGUGGCUAGACUGCC", "note": "[A16G C18U A26C G30C]", "self-cleavage": 0.09}
{"variant": "GGCAGAGCUCAACACAACGUUUCAAAGUGGCUGUGCCUUGACUGCC", "note": "[G17A G21U G22U G36C A39U]", "self-cleavage": 0.04}
{"variant": "AGAAGAUCUCAACACAGCGUGGCAACGUCGCUGUGGCUAGACUGCC", "note": "[G1A C3A G7U A26C G29C]", "self-cleavage": 1.63}
{"variant": "GGUAGAGUUCAACACAGCGUGGCAACGUGGCUGUGGCUAUACUGCC", "note": "[C3U C8U A26C G40U]", "self-cleavage": 0.18}
{"variant": "GGCUGAGCUGAACACAGCGUGGCAAGGUUGCUGUGGCUAGACUGCC", "note": "[A4U C10G A26G G29U]", "self-cleavage": 0.01}
{"variant": "GGCAAAGCUCAACACAGCGUGGCAAAGCGGCUGUGGUUAGACUGCC", "note": "[G5A U28C C37U]", "self-cleavage": 0.01}
{"variant": "GGCAGAGCUCAACAGAGCGUGGCAAAGUGGUCGUGGCUAGACUGCC", "note": "[C15G C31U U32C]", "self-cleavage": 0.01}
{"variant": "GGCAGAGCUUAACACAGCGUGGCAGAGUCGCUGUGGCUAGGCUGCC", "note": "[C10U A25G G29C A41G]", "self-cleavage": 0.02}
{"variant": "GGCCGACCUCAACACAGCGUGGCAAAGAGGCAUUGGCCAGACUGCC", "note": "[A4C G7C U28A U32A G33U U38C]", "self-cleavage": 0.02}
{"variant": "GGCUGAGCUAAACACAGGGUGGCAAAGUGGCUGUGGCUAGACUGCC", "note": "[A4U C10A C18G]", "self-cleavage": 0.03}
{"variant": "GGCUGAGCUAAACACAGCGUGGCAAAGUGGCUGUGGCUAGAAUACC", "note": "[A4U C10A C42A G44A]", "self-cleavage": 0.05}
{"variant": "GGCAGAGCUCAACACAGCGUGGCAAAGUGGCGGAGGCUCGACUGCC", "note": "[U32G U34A A39C]", "self-cleavage": 0.04}
{"variant": "GGCAGAGCUCAACACAGCGUGGCUAAGCGGCUGUGGCUAGACUGAC", "note": "[A24U U28C C45A]", "self-cleavage": 0.34}
{"variant": "UGCAGAGCUCAACACAGCGUGGCGAAGUGGCUGUGGCUCGACUGCC", "note": "[G1U A24G A39C]", "self-cleavage": 0.07}
{"variant": "GGCAGAGCUCAACACAGCGUGGCAAAACGGCUGUGGCUACACUGCC", "note": "[G27A U28C G40C]", "self-cleavage": 0.08}
{"variant": "GCCAGAGCUCAACAUAUCGUGGCAAAGUGGCUGUGGCUAGAUUGCC", "note": "[G2C C15U G17U C42U]", "self-cleavage": 0.04}
{"variant": "GGCAAAGCUCAACACAGUUCUGCAAAGUGGCUGUGGCUAGACUGCC", "note": "[G5A C18U G19U U20C G21U]", "self-cleavage": 0.1}
{"variant": "GGCAGAGGUCAACAAAGCUUGGCAAAGUGGCUGUGGCUAGACUGCC", "note": "[C8G C15A G19U]", "self-cleavage": 0.01}
{"variant": "GGCAGAGCUCAACACAGCGUGGCAAAUUGUCUGAGGCUAGACUGCC", "note": "[G27U G30U U34A]", "self-cleavage": 0.3}
{"variant": "GGCGGAGAUCAACACAGCGUGGCAAAGUGGCUGUGGCUAGACUGGC", "note": "[A4G C8A C45G]", "self-cleavage": 0.19}
{"variant": "GGCAGAGCUCAAUACAGCUUGGCAAAGUGGCUGUGGCUAGACUGCU", "note": "[C13U G19U C46U]", "self-cleavage": 0.02}
{"variant": "GGCAGAGCUCAACUUAGCGUGGCAGAGUGGCUGUGGCUAGAAUGCC", "note": "[A14U C15U A25G C42A]", "self-cleavage": 0}
{"variant": "GGCAGAGCUCAACACUGUGUGGCAAAGUGGCUGUGGCUAGACUUCA", "note": "[A16U C18U G44U C46A]", "self-cleavage": 0.09}
{"variant": "GGCAGAGCUCAAGAGCGCGUGGCAAAGUGGCUGUGGCUAGAAUUGC", "note": "[C13G C15G A16C C42A G44U C45G]", "self-cleavage": 0.04}
{"variant": "GGCAGAGCUCAACCCAGCGCGGCCAAGUGGCUGUGGCUUGACUGAC", "note": "[A14C U20C A24C A39U C45A]", "self-cleavage": 0.04}
{"variant": "GGCAGAGCUUAACACAGCGGGGCUCAGUGGAUGUGGCUAGACUGCC", "note": "[C10U U20G A24U A25C C31A]", "self-cleavage": 0.06}
{"variant": "GGAAAAGCUCUACAAAGCGUGACAUAGUGGUUGUGGCUAGACUGCC", "note": "[C3A G5A A11U C15A G22A A25U C31U]", "self-cleavage": 0.01}
{"variant": "AACAGAGCUCAACACAGGGUGCCAAAGUGGCUGUGGCUAGACUGCC", "note": "[G1A G2A C18G G22C]", "self-cleavage": 0.32}
{"variant": "GGCAGUGCUCAACACAGCGUGGCAAAGUGGCUGUGGCAAGACUUCC", "note": "[A6U U38A G44U]", "self-cleavage": 0.13}
{"variant": "GGCAGAGCUCAGCUCUGCGUGGCAAAUGGGCUGUGGCUAGACUGCC", "note": "[A12G A14U A16U G27U U28G]", "self-cleavage": 0.01}
{"variant": "GGCAGAGCUCAACACAGCGUUGCAAAGUGGCUGUGGCUAAAAUGCC", "note": "[G21U G40A C42A]", "self-cleavage": 0.15}
{"variant": "GGCAGAGCUCAACACAGCGUGGCAAAGUGGCUGUGGCUAGGAUGUC", "note": "[A41G C42A C45U]", "self-cleavage": 0.08}
{"variant": "GGCAGAGCUCAACACAGCGUGGCACAAAGGCUGUGGCUAGACUGCC", "note": "[A25C G27A U28A]", "self-cleavage": 0.24}
{"variant": "GGCAGAGCGCAACUCAGCGUGGCAAAGUGGCUGUGGCUACAAUGCC", "note": "[U9G A14U G40C C42A]", "self-cleavage": 0.13}
{"variant": "GGGAGAGCUGAACACAGCGUUGCAAAGUGUCUGUGGCUAGACUGCA", "note": "[C3G C10G G21U G30U C46A]", "self-cleavage": 0.01}
{"variant": "GGGAGAGCUCAGCACAGCGUGGUAAAGUGGCUGUGGCUAGACGGCC", "note": "[C3G A12G C23U U43G]", "self-cleavage": 0}
{"variant": "GGCAGAGCUCAACACAGAGUCGAAAAGUGGCUGUGGCUUGACUGCC", "note": "[C18A G21C C23A A39U]", "self-cleavage": 1.44}
{"variant": "GGCAGGGCUCAAGACAGCGUCCCAAAGUGGCUGUGUCUAGACUGCC", "note": "[A6G C13G G21C G22C G36U]", "self-cleavage": 0.04}
{"variant": "GGCAGAGCUCAACACAGCCUGGCAGAGUGGCUGUGGCUAGACUUCC", "note": "[G19C A25G G44U]", "self-cleavage": 0.26}
{"variant": "GGCCGAGCUCAACAUAACGUGGCAAAGUGGCGGUGGCUAGACUGCC", "note": "[A4C C15U G17A U32G]", "self-cleavage": 0.2}
{"variant": "GGCAGAGCUCAACUCAGCGUGGCACAGUGGCUGUGGCUAAACUGCC", "note": "[A14U A25C G40A]", "self-cleavage": 0.04}
{"variant": "GGCAGAGCUCAAGACAGCGUGGCAAACUGGCUGUUGCUAGACUGCC", "note": "[C13G G27C G35U]", "self-cleavage": 0.41}
{"variant": "GGCAGAGCUCCACACAGAGUGGCAAAGUGGCUGUGGCUAGACUGAC", "note": "[A11C C18A C45A]", "self-cleavage": 0.02}
